Measurements from PubChem BioAssay (NCI).
Values joined by “and” are separate entries in the source; they are usually repeats but may differ in a detail not shown here. Identical values can stand only once. Counter-ions that a name gives are not always drawn.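 48-hour exposure; five concentrations; linearly interpolated endpoints. Abbreviation: GI50, concentration required for 50% inhibition of growth. TGI: total growth inhibition.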 Numbered stars: 1 amine (or outer) side, 2 acyl side, 3 side chain; on linkers, the order of the positions; unused ones are H or OH. Square brackets hold non-standard residues; d marks the D form. Peptide text beside a SMILES is read from it. * marks the point of attachment. X27 = CC(=O)N(C)SCC(N[*:1])C(=O)[*:2]; X43 = CC(=O)N(C)SCC(N*)/C(O)=N\O; Cbz = O=C(OCc1ccccc1)*; Tfa = O=C(C(F)(F)F)*; Bn = c1ccc(C*)cc1; For = O=C*

test system: NCI-H322M lung; test: DTP human tumour cell line panel, 48 h

How did the GI50 turn out when `O=C(NC1CCN(Cc2ccccc2)CC1)c1cc(-c2ccncc2)nc2ccc(Cl)cc12` was run?
Its GI50 is 37.9 µM.

What about the TGI of the same compound?
The TGI was greater than 100 µM.

With `NCC(=O)NC1(c2cc3ccccc3s2)CCCCC1` as the compound, how does the TGI read?
Its TGI is greater than 100 µM.

How did the TGI turn out when `CC[C@]12CCCN3CCc4c(n(c5ccccc45)C(=O)C1)[C@@H]32` was run?
The TGI was greater than 100 µM.

Which GI50 does the source give for `N#Cc1c(-c2ccccc2)nc(SCC2CO2)nc1N1CCOCC1` (stereo not drawn) here?
Its GI50 is 10 µM.

And the TGI?
The TGI was greater than 100 µM.

`CCCCCC(C)(C)CCC(=O)OC1OC(COC2OC(COC3OC(CO)C(O)C(O)C3O)C(O)C(O)C2O)C(O)C(O)C1O` (stereo not drawn) was tested. Which TGI did it give?
The TGI was greater than 100 µM.

Which TGI does the source give for `CC(C)(C)c1cc(C(=O)Nc2cc(Br)c(Br)cc2S(N)(=O)=O)cc(C(C)(C)C)c1O` here?
Its TGI is 25.6 µM.

With `Cc1ccc(S(=O)(=O)N2CCCN(S(=O)(=O)c3ccc(C)cc3)CCN(S(=O)(=O)c3ccc(C)cc3)CCCSCC2)cc1` as the compound, how does the TGI read?
Its TGI is greater than 100 µM.

`Cc1ccc(-c2nc(C)c(C(=O)Nc3ccc(Cl)cc3)s2)cc1` was tested. Which TGI did it give?
Its TGI is 49.1 µM.

How did the TGI turn out when `O=P1(C(O)/C=C/c2ccccc2)N(Cc2ccccc2)[C@H](c2ccccc2)[C@@H](c2ccccc2)N1Cc1ccccc1` (stereo partly drawn) was run?
Its TGI is greater than 100 µM.

Which TGI does the source give for `CCc1nc(N)nc(N)c1-c1ccc(NCCN)c([N+](=O)[O-])c1` here?
The TGI was greater than 100 µM.

Which TGI does the source give for `COc1cc(C=O)ccc1Oc1nnnn1-c1ccccc1` here?
The TGI was greater than 100 µM.

With `C/C(CC/C(C)=N/O)=N\O` as the compound, how does the TGI read?
The TGI was greater than 100 µM.

`CC1(C)CCC[C@@]2(C)C1CCC1(C)C(CCc3ccoc3)/C(=C/OS(=O)(=O)O)CCC12` (stereo partly drawn) (tested in a mixture with another compound) was tested. Which TGI did it give?
Its TGI is greater than 100 µM.

With `NC(Cc1ccc(S(=O)(=O)O)cc1)C(=O)NC(CCCCNC(=O)NCCCCC(NC(=O)C(N)Cc1ccc(S(=O)(=O)O)cc1)C(=O)NC(Cc1ccc(S(=O)(=O)O)cc1)C(=O)O)C(=O)NC(Cc1ccc(S(=O)(=O)O)cc1)C(=O)O` (stereo not drawn) as the compound, how does the TGI read?
The TGI was greater than 100 µM.

For `NC(=O)c1nnc2ccc(F)cc2c1N`, which TGI is on record?
The TGI was greater than 100 µM.

`CCc1ccc(N=Cc2cc(OC)c(OC)c(OC)c2)cc1` was tested. Which TGI did it give?
Its TGI is greater than 100 µM.

For `Cc1cccc(NC(=O)CCc2ccc(N3C(N)=NC(N)=NC3(C)C)cc2)c1`, which GI50 is on record?
The GI50 was 3.62 µM.

And the TGI?
Its TGI is greater than 100 µM.

Which TGI does the source give for `CC1CC(C)C(O)C(C2CC(CC(=O)NC3CCCCC3)CC(=O)O2)C1` (stereo not drawn) here?
Its TGI is greater than 100 µM.

With `O=C(O)CC(NC(=O)C(F)(F)F)C(=O)NC(Cc1ccc(O)cc1)C(=O)O` (stereo not drawn) (Tfa-Asp-Tyr-OH; configuration not given here) as the compound, how does the TGI read?
The TGI was greater than 50 µM.

For `O=C(CN1CCN(Cc2ccccc2)CC1)c1ccc2[nH]c(=O)oc2c1`, which TGI is on record?
Its TGI is greater than 100 µM.

What does the source list for `Nc1c(C(=O)c2cccc(CCCN3CCOCC3)c2)cnn1-c1ccc(F)cc1`?
GI50: > 25 µM; TGI: > 25 µM

How did the TGI turn out when `O=C(O)CCNc1ccccc1C(=O)O` was run?
The TGI was greater than 100 µM.

Which TGI does the source give for `CN(C)CCOc1cccc2c1C(=O)c1ccccc1C2=O` here?
Its TGI is 34.5 µM.

`N#Cc1ccccc1NC(=O)/C(=N\N)C(C(=O)c1ccncc1)C1OC(=O)c2ccccc21` (stereo not drawn) was tested. Which TGI did it give?
Its TGI is greater than 100 µM.

`CC[C@]1(O)C[C@H]2CN(CCc3c([nH]c4ccccc34)[C@@](C(=O)OC)(c3cc4c(cc3OC)N(C=O)[C@H]3[C@@](O)(C(=O)OC)[C@H](OC(C)=O)[C@]5(CC)C=CCN6CC[C@]43[C@@H]65)C2)C1` was tested. Which TGI did it give?
Its TGI is 128 µM and 122 µM.

Which TGI does the source give for `O=[N+]([O-])c1nc(-c2ccccn2)[nH]c1[N+](=O)[O-]` here?
The TGI was greater than 100 µM.

Which TGI does the source give for `CN(C)CCOc1ccc2[nH]c(C(=O)N3CC(CCl)c4c3cc(N)c3ccccc43)cc2c1` (stereo not drawn) here?
Its TGI is 1.78 µM.

Which TGI does the source give for `CCOC(=O)C1(C(N)=O)C(=O)c2ccncc2C1=O` (stereo not drawn) here?
The TGI was greater than 100 µM.

For `O=C1C(Cl)=C(Nc2cccc(Cl)c2)C(=O)N1Cc1ccccc1`, which GI50 is on record?
Its GI50 is 16.7 µM.

And the TGI?
Its TGI is 36.4 µM.

Which TGI does the source give for `Cc1ccccc1NC(=O)C(=O)C(C#N)c1ccc(Cl)cc1` (stereo not drawn) here?
Its TGI is greater than 100 µM.

How did the TGI turn out when `O=c1sc2c(s1)SSSSS2` was run?
The TGI was greater than 50 µM.

For `CC(=O)N[C@@H](Cc1ccc(OP(=O)(O)O)cc1)C(=O)N[C@H]1CCC(=O)N2CCC[C@@H](C(=O)NCc3ccc(Cl)cc3)N2C1=O`, which GI50 is on record?
The GI50 was greater than 25 µM.

And the TGI?
The TGI was greater than 25 µM.

`OCC1OC(n2nc(-c3ccccc3)nc2-c2cnccn2)C(O)C(O)C1O` (stereo not drawn) was tested. Which TGI did it give?
Its TGI is greater than 100 µM.

For `CCOC(=O)c1c2c(c(O)c3ccccc3c(O)n(Cc3ccc(OC)cc3)c1C)C(=O)C=CC2=O`, which GI50 is on record?
The GI50 was greater than 100 µM.

What about the TGI of the same compound?
The TGI was greater than 100 µM.

How did the TGI turn out when `CCC(C#N)(c1ccccc1)N(CCc1ccccc1)C(=O)c1ccccc1` (stereo not drawn) was run?
The TGI was greater than 100 µM.

Which TGI does the source give for `Cc1c2cc[n+](C)cc2c(C)c2c1sc1ccccc12` here?
Its TGI is 7.47 µM.

For `Clc1ncnc(Cl)c1Cl`, which TGI is on record?
Its TGI is greater than 100 µM.

With `O=C1[C@@H]2C(c3ccccc3Br)=NO[C@@H]2C(=O)N1c1ccc(Cc2ccc(N3C(=O)[C@H]4C(c5ccccc5Br)=NO[C@H]4C3=O)cc2)cc1` as the compound, how does the TGI read?
The TGI was greater than 100 µM.

For `COc1c(C=O)c2c(c(OC)c1OC)-c1ccc(OC)c(=O)cc1[C@@H](NC(C)=O)CC2`, which TGI is on record?
The TGI was 9.89 µM.

`O=C1c2c(Cl)c(Cl)c(Cl)c(Cl)c2C(=O)N1CCN(c1c(Cl)ssc1=O)c1c(Cl)ssc1=O` was tested. Which TGI did it give?
The TGI was greater than 100 µM.

For `CC(=O)N(C)SCC(NC(=O)C(Cc1ccccc1)NC(=O)OCc1ccccc1)C(=O)NC(Cc1ccccc1)C(=O)NC(Cc1cn(C=O)c2ccccc12)C(=O)NC(CCCCNC(=O)OCc1ccccc1)C(=O)NC(C(=O)NC(CSN(C)C(C)=O)/C(O)=N\O)C(C)OCc1ccccc1` (stereo not drawn) (Cbz-F[X27]FW(For)K(Cbz)T(Bn)-X43; configuration not given here), which TGI is on record?
The TGI was greater than 100 µM.

Which TGI does the source give for `COc1cc2c(cc1OC)-c1cc3ccccc3c[n+]1CC2` here?
The TGI was greater than 100 µM.

Which TGI does the source give for `O=C(Nn1c(-c2ccccc2)nc2ccccc2c1=O)c1ccc(CS)cc1` here?
Its TGI is greater than 100 µM.

With `Nc1ncnc2c1ncn2C1OC(COP(=O)(O)O)C(O)C1O` (stereo not drawn) as the compound, how does the TGI read?
The TGI was greater than 50 µM.

How did the TGI turn out when `Cc1cc(N(CCC#N)CCC#N)ccc1/C=C1N=C(/C=C\c2ccccc2)OC\1=O` was run?
Its TGI is greater than 100 µM.

With `CS(=O)(=O)c1ccc(/C=N/NC(N)=S)cc1` as the compound, how does the TGI read?
The TGI was greater than 100 µM.

Which TGI does the source give for `N#CN=C(N)c1sc2nc3c(c(-c4ccc(Br)cc4)c2c1N)CCCC3` here?
Its TGI is 68.2 µM.

How did the TGI turn out when `COc1ccc(/C=C2\CCCC(CN(C)C)C2=O)cc1` (stereo not drawn) was run?
Its TGI is 30.6 µM.

How did the TGI turn out when `NC(=O)NNCc1ccccc1` was run?
The TGI was greater than 100 µM.

How did the TGI turn out when `CC(=O)Nc1ccc(Nc2cc(=O)[nH]c(=O)[nH]2)cc1` was run?
The TGI was greater than 100 µM.

How did the TGI turn out when `COc1cc2c[n+](C)c3c4cc(OC)c(OC)cc4c(OC)cc3c2cc1OC` was run?
Its TGI is greater than 100 µM.
